The list shows a part of the results.

B1: ENSG00000198837:stop:overlap|stop_codon|ENSG00000198837|stop_codon|NA|stop_codon (ssRNA)
RNA: GGGAGUUCUACAGUCCGACGAUCAGAUGCCCACUCCCAAGGCCAUUGACUGCCGAAAAUGUUUUGGAGCACCUCCAGAAUGCUAGAGACCUUAAGCUUCCCUCUCCAGCCUAGGGUGGGGAAGUGAGGAAGAAGGGAUUCUAGCAACAGAGGAUUGAGCAUCA
B2: ENSG00000070961:be:win_1851|CDS|ENSG00000070961|bound_else_gene|NA|bound_elsewhere_windowed (ssRNA)
RNA: GGGAGUUCUACAGUCCGACGAUCUAAUGGUGAGGCAAAAGUAUUCAGACCAAGGGACCGUGAUGAUAUUGUAAAAACUGUGAUUGAACCGAUGGCAUCAGAAGGCUUGAGAACCAUAUGUCUUGCAUUCAGAGAUUUUCCAGCCAACAGAGGAUUGAGCAUCA
B3: chr19:17262551:17262990:-|CDS|ENSG00000130307|control|control|control (ssRNA)
RNA: GGGAGUUCUACAGUCCGACGAUCUGCCAGCGAGAGGCAGCUCGCCUGGCCGAGAGGAAUGCCUGGCUCCGGCUGGCCCUGAGUAGCCGAGAGGAUGAGCUGGUCCGCACGCAGGCCUCCCUGGAGGCCAUCCGAGCUGAGAAGCAACAGAGGAUUGAGCAUCA
B4: ENSG00000196396:stop:overlap|stop_codon|ENSG00000196396|stop_codon|NA|stop_codon (ssRNA)
RNA: GGGAGUUCUACAGUCCGACGAUCCUACGGUCCUCACGGCCGGCGCUUACCUCUGCUACAGGUUCCUGUUCAACAGCAACACAUAGCCUGACCCUCCUCCACUCCACCUCCACCCACUGUCCGCCUCUGCCCGCAGAGCCCACGCAACAGAGGAUUGAGCAUCA
B5: chr12:67313014:67313056:+|3pUTR|ENSG00000111530|msi1_unk|FALSE|overlapping (ssRNA)
RNA: GGGAGUUCUACAGUCCGACGAUCUUUUUGUAGCAUUUAUUUCAGAAAUGUGUAUUUCCAUAAUCCAGAGGUUGUAAAACCACUAGUGUUUUAGUGGUUACAGCAACAUUUGAAAUGGAAACUAAAAGUUAGGAUUUUAUGGAGCAACAGAGGAUUGAGCAUCA
B6: chr8:17969608:17969733:+|CDS|ENSG00000078674|unk|total|mutant (ssRNA)
RNA: GGGAGUUCUACAGUCCGACGAUCUUCUAAUUUUGGAGAUUUUUCUCAGAAUAUCUCUACACCCAGUGAACAGCAGCAACCCUCCGCCCAGAAUUCUUCAGGAAAAACAGAAUAUAUGGCUUUUCCAAAACCUUUUGAAAGCAGCAACAGAGGAUUGAGCAUCA

For this test, the target named is MSI1 full-length (mouse, UniProt Q61474 1-362). Kind of test: nsRBNS (natural sequence RNA bind-n-seq); RBNS binding buffer (assumed for nsRBNS): 25 mM Tris pH 7.5, 150 mM KCl, 3 mM MgCl2, 0.01% Triton X-100, 500 ug/ml BSA, 20 U/ml SUPERase-In, 4 C; UNK is unkempt and MSI1 is Musashi-1; names of the RNAs are library labels; protein concentration not given here; high values mean tight binding.
Chain of UniProt Q61474 (Q61474 whole entry): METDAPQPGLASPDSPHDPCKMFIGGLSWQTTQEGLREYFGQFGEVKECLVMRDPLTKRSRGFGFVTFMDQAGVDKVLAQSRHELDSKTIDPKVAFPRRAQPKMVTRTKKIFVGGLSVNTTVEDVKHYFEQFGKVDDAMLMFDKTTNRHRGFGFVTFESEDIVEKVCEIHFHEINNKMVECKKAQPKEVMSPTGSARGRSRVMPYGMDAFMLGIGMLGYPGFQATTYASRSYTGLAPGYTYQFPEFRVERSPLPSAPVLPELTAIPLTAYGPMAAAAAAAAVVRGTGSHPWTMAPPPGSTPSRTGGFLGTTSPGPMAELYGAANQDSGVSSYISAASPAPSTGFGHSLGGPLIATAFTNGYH
As for B1, the binding signal was 2.04 enrichment R. Consider B2, for which the binding signal worked out at 0.273 enrichment R. B3 had a binding signal of 0.412 enrichment R. Then B4, with 0.27 enrichment R; and B5, with 0.408 enrichment R; and B6, with 0.293 enrichment R.

The record behind these values is paper PMC12136788.
